Z-score data for 71 molecules are collected here from PubChem BioAssay AID488969 (Vanderbilt High Throughput Screening Facility, 2010).

In all, about 110,000 compounds were measured (“z-score”: median about -0.1, highest 2% from about 2 on). This is one part of the list.

This experiment concerns the target Metabotropic glutamate receptor 8 (Rattus norvegicus) (UniProt P70579). The experiment can be described thus: mGluR8 Gi/Go-coupled signaling modulation – cell-based, rat, thallium flux, HTS, primary screen (AID 488969). As to conditions: HEK293 rat mGluR8, GIRK (G protein-gated inwardly rectifying potassium channel) thallium flux, FluoZin2; at 10 µM; stronger effect = higher value; submaximal glutamate (EC20) added with thallium.
Sequence of UniProt P70579 (P70579 whole entry, looked up): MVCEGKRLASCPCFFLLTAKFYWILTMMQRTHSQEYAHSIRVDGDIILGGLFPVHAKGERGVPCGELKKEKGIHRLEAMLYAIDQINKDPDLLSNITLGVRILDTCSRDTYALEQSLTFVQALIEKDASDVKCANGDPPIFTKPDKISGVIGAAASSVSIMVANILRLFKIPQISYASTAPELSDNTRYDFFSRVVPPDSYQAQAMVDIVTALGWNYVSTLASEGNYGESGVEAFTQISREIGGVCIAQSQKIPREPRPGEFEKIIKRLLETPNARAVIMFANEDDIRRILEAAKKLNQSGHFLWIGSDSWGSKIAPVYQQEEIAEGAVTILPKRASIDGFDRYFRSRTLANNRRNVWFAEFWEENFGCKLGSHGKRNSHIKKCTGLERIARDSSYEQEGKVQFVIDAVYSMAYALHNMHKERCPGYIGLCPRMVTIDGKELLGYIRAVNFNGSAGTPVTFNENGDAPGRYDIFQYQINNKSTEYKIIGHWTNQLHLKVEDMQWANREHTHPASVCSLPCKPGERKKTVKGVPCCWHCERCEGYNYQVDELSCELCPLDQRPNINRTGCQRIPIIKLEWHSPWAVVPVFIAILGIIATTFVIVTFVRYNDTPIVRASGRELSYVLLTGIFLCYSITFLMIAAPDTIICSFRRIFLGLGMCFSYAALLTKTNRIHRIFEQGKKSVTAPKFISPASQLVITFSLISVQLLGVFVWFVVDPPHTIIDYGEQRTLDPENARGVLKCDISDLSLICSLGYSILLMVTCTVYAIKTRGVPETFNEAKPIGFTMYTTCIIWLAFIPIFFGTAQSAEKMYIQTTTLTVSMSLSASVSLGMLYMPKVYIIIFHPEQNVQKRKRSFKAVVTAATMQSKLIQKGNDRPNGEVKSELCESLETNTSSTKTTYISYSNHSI
For the molecule `O=C(Cc1ccc2c(c1)OCCO2)N1CCN(S(=O)(=O)c2ccccc2C(F)(F)F)CC1`, the z-score is -0.0164.

For the molecule `CC(=N/O)/C(=N\O)c1ccc(C)o1`, the z-score is 0.0642.

For `O=C(COC(=O)c1ccc(S(=O)(=O)N2CCCC2)cc1)NCc1ccc(F)cc1`, the z-score was -0.114. In turn, `CCOc1ccc(-c2nnc(-c3ccc(OC)cc3)o2)cc1` yielded a z-score of 0.396. Regarding `COc1cccc(/C=N/Nc2ccc(S(=O)(=O)O)cc2)c1O`, the z-score is -0.129. For `C=CCN(C(=O)Nc1ccc(F)cc1)C1CC(=O)N(c2ccc(OC)cc2)C1=O` (stereo unspecified) the value was 0.0834; for `COc1ccc(S(=O)(=O)N2CCC(C(=O)Nc3cccc(C(C)=O)c3)CC2)cc1`, -0.333. For `Cc1ccc(-c2nnn(CC(=O)N(CC3CCCO3)C(C(=O)NC(C)(C)C)c3ccc(F)cc3)n2)o1` (stereo unspecified) the value was -0.276; for `COCC(C)NC(=O)c1ccc(Cl)c(Cl)c1` (stereo unspecified), -0.306. The molecule `Cc1nc(SCC(=O)Nc2ccc(F)cc2)c2oc3ccccc3c2n1` registered a z-score of 0.165. As for `CSCC[C@H](NC(=O)COc1ccc(Cl)cc1)c1nc2ccccc2[nH]1`, the z-score was -0.151. Take `COc1ccc(OCC(=O)Nc2nnc(C)s2)cc1`: the z-score stood at 0.094. Then `COc1ccc(C(C)=O)cc1CN(C)C`, with 0.27; and `O=C(CSc1nc2ccccc2nc1SCC(=O)N1CCOCC1)N1CCOCC1`, with 0.324.

As to `O=C(Oc1ccc([N+](=O)[O-])cc1)c1cc(-c2ccccc2)nc2ccccc12`, the z-score is 0.227. For `O=C(c1cc(-c2ccco2)nc2ccccc12)N1CCN(c2ccc(F)cc2)CC1` the value was 0.0682; for `c1ccc2c(c1)CCN(c1nc(CN3CCOCC3)nc3sc4c(c13)CCCC4)C2`, -1.03. For `COc1ccc(-c2nnn(CC(=O)NCc3ccccc3)n2)cc1OC` the value was -0.0224; for `O=S(=O)(NCCc1ccccc1)c1cccc2nsnc12`, -0.174; for `Cc1ccc(OCc2nnc(SCC(=O)N3CCc4ccccc43)n2C)cc1`, -0.358. As to `COc1c(Cl)cc(-c2noc(C)c2C(=O)NCCc2ccc(C)cc2)cc1Cl`, the z-score is -0.149. For `N/C(=N\OC(=O)c1cccc(F)c1)c1ccccc1` the value was -0.224; for `COCCn1cc(C(=O)NCc2cccs2)c2c3ccccc3n(C)c2c1=O`, -0.0703.

Take `C=CCOc1c(OC)cc(/C=N/Nc2cccc(C(=O)O)c2)c(Br)c1Br`: the z-score is -0.731. For `CC(C)N(Cc1nc(-c2ccc(Cl)cc2)no1)C(=O)CCC1CCCC1` the value was 0.0621. Then `O=C(Nc1cn(-c2ccccc2)nc1-c1ccccc1)c1ccccc1`, with -0.43.

On to `CCOc1cc(CNc2ccccc2)cc(Br)c1OCC(=O)NC(C)(C)C`, for which the z-score was -0.159.

For the molecule `Cc1ccc(Nc2cc(C)nn2-c2nc(C)cc(C)n2)cc1`, the z-score stood at 0.547.

`Cc1ccccc1C(=O)NC(=S)Nc1ccccc1C(F)(F)F` yielded a z-score of 1.41. For `Cc1nn(C)cc1CNC(=O)Nc1ccc(Br)cc1Cl` the value was -0.126; for `CC1CCCC(NC(=O)CCn2c(=O)oc3ccccc32)C1C` (stereo unspecified), 0.256. In turn, `Cc1cccc(OCCCC(=O)Nc2ccc(Br)cc2)c1` displayed a z-score of 0.1. Turning to `CCOC(=O)C1CCN(CCC(=O)Nc2ccccc2)CC1`, the z-score came to 0.0558. `COc1ccc(-c2cc3nc(C)cc(N)n3n2)cc1` returned a z-score of 0.483. For `CC(C)CCN(C(=O)Nc1ccccc1)C(C)c1cccs1` (stereo unspecified) the value was -0.649; for `Cc1cc(C(=O)N2CCN(c3ncccn3)CC2)c2cc(F)ccc2n1`, -0.0276.

Turning to `O=C(CCCn1c(=O)[nH]c2cc(Cl)ccc2c1=O)NC1CCCCCCC1`, the z-score was -0.244. Consider `CCn1c2ccccc2c2cc(/C=N/NC(=O)c3ccccc3C)ccc21`, for which the z-score was -0.411. Then `Cc1ccccc1CSc1ccc(-c2ccc3c(c2)OCO3)nn1`, with -0.25; and `O=C(Nn1c(C2CCCCC2)nc2ccccc2c1=O)c1ccc([N+](=O)[O-])cc1`, with 0.823; and `CCOC(=O)N1CCC(NS(=O)(=O)c2cc(Br)cnc2N)CC1`, with -0.28. On to `O=C(O)CCc1nn2cnc3sc4c(c3c2nc1=O)CCCC4`, for which the z-score is -0.0834. As to `Cc1sc(NC(=O)Cc2ccc3c(c2)OCO3)nc1-c1ccc2c(c1)CCN2C(=O)c1cccc(F)c1`, the z-score is -0.162. Then `Cc1nnc(NC(=O)c2cccc(F)c2)s1`, with -0.523. The molecule `Cn1cccc1C(=O)C(=O)Nc1ccc(Cl)cc1` displayed a z-score of 0.233. Regarding `CC(=O)Nc1ccc(S(=O)(=O)NNC(=O)COc2ccc(C)cc2)cc1`, the z-score is -0.214. Regarding `CCOC(=O)c1ccc(NC(=O)CCS(=O)(=O)c2ccc(Br)s2)cc1`, the z-score was found to be 0.3.

As for `Cn1c(=O)[nH]c(=O)c2c1nc(SCC(=O)Nc1ccccc1)n2Cc1ccccc1`, the z-score amounted to 0.0773.

As to `COc1ccccc1NC(=S)Nc1cccc2cnccc12`, the z-score is -0.138. `O=C(COc1ccccc1[N+](=O)[O-])N/N=C/C=C/c1ccco1`: the z-score was -0.136. Then `CCC(C)NS(=O)(=O)c1ccc(-c2csnn2)s1` (stereo unspecified), with 0.267; and `COc1ccccc1N=Cc1c(O)c2ccccc2oc1=O`, with -0.0898. As to `Cc1cc(NC(=O)CCC(=O)N(c2ccccc2)C(C(=O)NC2CCCC2)c2cccs2)no1` (stereo unspecified), the z-score is -0.619. Consider `O=C1c2ccccc2CC1Sc1nnc(-c2ccccn2)o1` (stereo unspecified), for which the z-score is -0.372. Then `COc1cc(C(=O)Nc2cccc3cccnc23)cc(OC)c1OC`, with -0.38. Then `CCNc1ccc(C(=O)OCC(=O)NC(C)c2ccccc2)cc1[N+](=O)[O-]` (stereo unspecified), with -0.503; and `COc1cc(-c2ccccc2)nc2ccccc12`, with -0.949. `O=c1c2cnn(-c3ccccc3)c2ncn1Cc1ccccc1F` gave a z-score of 0.298.

With `COc1cc(OC)cc(C(=O)N2CCN(C(=O)COc3ccc4ccccc4c3)CC2)c1`, the z-score was found to be 0.077. For `Cn1c(CO)cnc1SCc1ccc([N+](=O)[O-])cc1` the value was 0.145; for `Cc1ccc(NCc2nnc(SCC(=O)Nc3cc(C)on3)n2C)cc1`, -0.268; for `CCOc1ccccc1NC(=O)N1CCC(NC(=O)c2cccc(C)c2)CC1`, -0.402. With `CN(C)c1ccnc2sc3c(NCC(O)CO)ncnc3c12` (stereo unspecified), the z-score was -0.106. Regarding `Cc1cccc(N2C(=O)C(Oc3ccc(Cl)cc3Cl)C2C(=O)O)c1C` (stereo unspecified), the z-score was -0.287. Then `Cc1ccc(Sc2nc(-c3ccccc3)nnc2C(F)(F)F)cc1`, with -0.272; and `CC(=O)N1CCC2(CC1)C(C#N)=C(N)Oc1n[nH]c(C(F)(F)F)c12`, with 0.531. For `CSc1nc(C)cc(SC(C(C)=O)C(=O)Nc2ccccc2)n1` (stereo unspecified) the value was -0.502; for `COc1cc(CSc2ncn[nH]2)c(OC)cc1CSc1ncn[nH]1`, -0.214. As to `Cc1ccc(-c2nc3ccccc3s2)cc1NC(=O)c1ccc2c(c1)OCO2`, the z-score is -0.221.

As to `CCOC(=O)C(NC(=O)c1ccc(Cl)cc1Cl)(Nc1ccc(C)cc1)C(F)(F)F` (stereo unspecified), the z-score is -0.12. For the molecule `COc1ccc(-c2nnn(CC(=O)N(Cc3ccccc3Cl)C(C(=O)NCC3CCCO3)c3ccco3)n2)cc1` (stereo unspecified), the z-score is -0.253.
